Test results: publication PMC5700166
The entries are a selection whose mix differs from that of the whole data set. The list includes weakly bound sequences.

target: T1, GST-Dm-Relish (UniProt Q94527); assay: protein-binding microarray (PBM); conditions: PBM: ~300 nM protein, 6 mM HEPES pH 7.8, 80 mM KCl, 0.5 mM EDTA, 0.5 mM EGTA, 6% glycerol, 35 ng/ul poly-dIdC, 1% milk, 1 h, room temperature; Ap Aiptasia and Nv Nematostella (sea anemones) / Co Capsaspora / Aq Amphimedon (sponge) / Dm Drosophila / Hu human; RHD is the Rel homology domain; high values mean tight binding; most listed sequences are background and not binding sites; double strand, one strand shown
T1 sequence: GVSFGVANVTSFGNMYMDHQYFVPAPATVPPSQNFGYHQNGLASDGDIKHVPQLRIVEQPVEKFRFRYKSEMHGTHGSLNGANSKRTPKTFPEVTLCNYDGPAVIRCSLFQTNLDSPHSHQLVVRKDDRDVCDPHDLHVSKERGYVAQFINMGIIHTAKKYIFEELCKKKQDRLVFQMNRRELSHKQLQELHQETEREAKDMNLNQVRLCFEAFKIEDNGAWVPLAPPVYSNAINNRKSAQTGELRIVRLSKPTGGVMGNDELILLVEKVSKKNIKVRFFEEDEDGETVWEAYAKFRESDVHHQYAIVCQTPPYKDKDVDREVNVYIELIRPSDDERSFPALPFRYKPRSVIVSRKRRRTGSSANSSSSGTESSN

With “CCGATTAACATCAGGAGACTCCCTGATGTTAATCGGGTCTTGATTCGCTTGACGCTGCTG” as the sequence, how does the binding signal read?
Its binding signal is 1.79 z-score.

“CCGATTAACATCAGGAAACTTCCTGATGTTAATCGGGTCTTGATTCGCTTGACGCTGCTG” was tested. Which binding signal did it give?
Its binding signal is 0.358 z-score.

How did the binding signal turn out when “CCGATTAACATCAAAATTTCCGCTGATGTTAATCGGGTCTTGATTCGCTTGACGCTGCTG” was run?
Its binding signal is 0.212 z-score.

“CCGATTAACATCAAAAAGTCCCTTGATGTTAATCGGGTCTTGATTCGCTTGACGCTGCTG” was tested. Which binding signal did it give?
The binding signal was 8.86 z-score.

For “CCGATTAACATCAAGGAAGTTCCTGATGTTAATCGGGTCTTGATTCGCTTGACGCTGCTG”, which binding signal is on record?
Its binding signal is -0.00166 z-score.

With “CCGATTAACATCAAAAGCCCCCCTGATGTTAATCGGGTCTTGATTCGCTTGACGCTGCTG” as the sequence, how does the binding signal read?
Its binding signal is 8.42 z-score.
